# Laboratory results taken from PubChem BioAssay (EPA / NIEHS).
# Some entries of the source have several records that differ or are many. This list holds those alone. The source may hold further records. The records of an entry are repeated measurements in other runs, samples, wells, individuals or studies. Inconclusive results are not listed. How the source made its calls, unless noted: active means hit-call score of the fitted dose curve at least 0.9, where 1 is the maximum; inconclusive means response in the unintended direction; inactive means score below 0.9. The source holds several records for some structures; these can differ, active in one and inactive in another.
# Tests used:
# [1] = ATG_PPRE_CIS: Attagene CIS-FACTORIAL HepG2 Assay for human Peroxisome Proliferator-activated Response Element (PPRE) (AID 2282958; active means hit-call score of the fitted dose curve at least 0.9, where 1 is the maximum; inactive means score below 0.9); conditions: HepG2 PPRE cis-element reporter, Attagene transcription factor profiling; actives raise or lower the signal
# How it was run: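 HepG2 cells are transiently transfected with multiplexed cis-promoter reporter units to report endogenous PPAR activity. After 24 h dosing, reporter mRNA is read by RT-PCR and capillary electrophoresis. Fitting is bidirectional against DMSO.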
# [2] = target: human Retinoid X Receptor beta (RXRb), RXRB (gene 6257) (UniProt P28702); experiment: ATG_RXRb_TRANS: Attagene TRANS-FACTORIAL HepG2 Assay for human Retinoid X Receptor beta (RXRb) (AID 2283013)
# Sequence of UniProt P28702 (P28702 whole entry, looked up, the tested form may be a part): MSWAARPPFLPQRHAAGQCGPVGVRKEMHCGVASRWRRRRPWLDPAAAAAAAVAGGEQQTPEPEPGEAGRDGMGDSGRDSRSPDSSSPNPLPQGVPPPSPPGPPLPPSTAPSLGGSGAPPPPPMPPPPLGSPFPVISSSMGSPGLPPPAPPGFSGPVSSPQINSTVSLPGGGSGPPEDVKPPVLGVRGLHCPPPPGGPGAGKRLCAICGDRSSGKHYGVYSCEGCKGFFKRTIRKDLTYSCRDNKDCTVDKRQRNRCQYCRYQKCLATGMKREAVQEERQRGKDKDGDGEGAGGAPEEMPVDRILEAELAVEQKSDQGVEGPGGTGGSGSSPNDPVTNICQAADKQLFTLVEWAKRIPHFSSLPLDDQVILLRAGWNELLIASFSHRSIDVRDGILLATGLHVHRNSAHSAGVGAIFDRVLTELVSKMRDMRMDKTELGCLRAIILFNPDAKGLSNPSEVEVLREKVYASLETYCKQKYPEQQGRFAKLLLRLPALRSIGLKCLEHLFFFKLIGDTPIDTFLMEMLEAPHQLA
# How it was run: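 Readout is reporter transcript induction after 24 h dosing. It is measured by RT-PCR of total RNA followed by fluorescent capillary electrophoresis. HepG2 liver cells carry transfected multiple reporter units driven by an exogenous RXRb-Gal4 fusion; activity is relative to DMSO.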
# [3] = ATG_NRF2_ARE_CIS: Attagene CIS-FACTORIAL HepG2 Assay for human Nuclear Factor Erythroid 2 Related Factor 2 (NFR2) response to Antioxidant Response Elements (ARE) (AID 2282992; active means hit-call score of the fitted dose curve at least 0.9, where 1 is the maximum; inactive means score below 0.9;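 further: reporter mRNA level measured by RT-PCR and capillary electrophoresis fluorescence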); conditions: HepG2 Attagene ARE/NRF2 reporter, transcription factor activity; actives raise or lower the signal
# How it was run: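 Using transiently transfected HepG2 cells exposed for 24 h, reporter mRNA levels were determined by RT-PCR with fluorescent primer extension and capillary electrophoresis, analysed for gain or loss of signal against DMSO.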
# [4] = target: bovine Estrogen Receptor (ER), ESR1 (gene 407238) (UniProt P49884); experiment: NVS_NR_bER: NovaScreen (NVS) Nuclear Receptor Binding Assay for bovine Estrogen Receptor (ER) (AID 2283345);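 further: actives lower the bound radioligand count which means they displace the ER ligand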
# Sequence of UniProt P49884 (P49884 whole entry, looked up): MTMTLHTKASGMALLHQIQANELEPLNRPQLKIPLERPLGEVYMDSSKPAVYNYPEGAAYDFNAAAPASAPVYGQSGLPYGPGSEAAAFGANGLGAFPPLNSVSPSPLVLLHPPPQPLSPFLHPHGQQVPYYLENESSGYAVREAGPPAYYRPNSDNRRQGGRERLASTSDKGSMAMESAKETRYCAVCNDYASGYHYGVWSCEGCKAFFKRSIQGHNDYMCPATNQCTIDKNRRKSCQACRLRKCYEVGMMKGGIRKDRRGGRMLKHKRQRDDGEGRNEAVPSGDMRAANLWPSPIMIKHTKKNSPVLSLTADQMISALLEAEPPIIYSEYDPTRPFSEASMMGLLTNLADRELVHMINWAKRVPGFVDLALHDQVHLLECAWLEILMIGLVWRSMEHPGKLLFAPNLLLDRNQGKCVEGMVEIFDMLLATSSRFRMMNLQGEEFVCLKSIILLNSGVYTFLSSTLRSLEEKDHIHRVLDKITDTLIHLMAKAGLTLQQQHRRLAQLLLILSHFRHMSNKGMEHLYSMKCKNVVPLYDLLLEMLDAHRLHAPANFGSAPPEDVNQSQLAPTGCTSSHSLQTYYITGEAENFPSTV
# How it was run: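 Bovine uterine membranes; tritiated or iodinated radioligand; competitive displacement; 18 h; scintillation read; DMSO negative control; 25 uM duplicates, then concentration series for actives.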
# [5] = target: Retinoic acid receptor RXR-alpha (Homo sapiens) (UniProt P19793); experiment: OT_NURR1_NURR1RXRa_1440: Odyssey Thera (OT) 24-hour HEK293T Protein Complementation Assay for Nurr1/retinoid X receptor (RXR) (AID 2283386)
# Sequence of UniProt P19793 (P19793 whole entry, looked up, the tested form may be a part): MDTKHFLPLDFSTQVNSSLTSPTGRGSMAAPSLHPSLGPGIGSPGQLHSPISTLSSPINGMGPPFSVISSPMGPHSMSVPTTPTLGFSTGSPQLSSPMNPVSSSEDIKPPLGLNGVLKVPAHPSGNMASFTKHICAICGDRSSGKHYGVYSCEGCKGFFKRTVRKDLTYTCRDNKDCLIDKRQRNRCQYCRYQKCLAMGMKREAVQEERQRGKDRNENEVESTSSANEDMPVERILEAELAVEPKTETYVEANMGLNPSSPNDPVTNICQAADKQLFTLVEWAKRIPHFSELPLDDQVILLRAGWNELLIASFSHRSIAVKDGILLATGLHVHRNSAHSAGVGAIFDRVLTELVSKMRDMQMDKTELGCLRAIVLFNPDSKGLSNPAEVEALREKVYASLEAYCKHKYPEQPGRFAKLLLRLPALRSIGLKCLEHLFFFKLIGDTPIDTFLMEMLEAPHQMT
# How it was run: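 Gain in fluorescence, fitted relative to DMSO, reflects Nurr1–RXRα association in HEK293T cells after 24 h dosing. Bait and prey are each linked to a reporter-protein fragment that reassembles on interaction.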
smiles,measurement,setting,value
O=C(O)Cc1cc(I)c(Oc2ccc(O)c(I)c2)c(I)c1,AC50,[1],"active: 4.33, 2.39, 16.8, 2 µM [separate samples]"
same,AC50,[2],"active: 26.5, 4.9, 26.8, 26.6 µM [separate samples]"
CCCCCc1ccc(N)cc1,AC50,[3],"active: 7.34, 10.9, 15.1, 4.71 µM [separate samples]"
CCCCCCCC[Si](OCC)(OCC)OCC,AC50,[3],"active: 124, 35.4, 70.5, 37.6 µM [separate samples]"
C[C@]12CC[C@@H]3c4ccc(O)cc4CC[C@H]3[C@@H]1CCC2=O,AC50,[4],"active: 26.4, 11.9, 6.99, 25.1 nM [separate samples]"
O=c1c(-c2ccc(O)cc2)coc2cc(O)cc(O)c12,AC50,[5],"active: 22.1, 24.8, 39.2, 10.3 µM [separate samples]"
